In PMC4336329 (PLoS ONE, 2015):
Out of some 310,000 compounds screened, about 14,000 (4.5%) showed an effect of 50% or more. Effects have a minus sign here. This is one part of the list.

Target: human ether-à-go-go-related gene (hERG) potassium channel (human, UniProt Q12809)
Assay: primary screen, population patch clamp on CHO cells stably expressing hERG
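Note: peak tail current of the secondary pulse compared with the same well before compound.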

Chain of human ether-à-go-go-related gene (hERG) potassium channel (Q12809 whole entry, looked up): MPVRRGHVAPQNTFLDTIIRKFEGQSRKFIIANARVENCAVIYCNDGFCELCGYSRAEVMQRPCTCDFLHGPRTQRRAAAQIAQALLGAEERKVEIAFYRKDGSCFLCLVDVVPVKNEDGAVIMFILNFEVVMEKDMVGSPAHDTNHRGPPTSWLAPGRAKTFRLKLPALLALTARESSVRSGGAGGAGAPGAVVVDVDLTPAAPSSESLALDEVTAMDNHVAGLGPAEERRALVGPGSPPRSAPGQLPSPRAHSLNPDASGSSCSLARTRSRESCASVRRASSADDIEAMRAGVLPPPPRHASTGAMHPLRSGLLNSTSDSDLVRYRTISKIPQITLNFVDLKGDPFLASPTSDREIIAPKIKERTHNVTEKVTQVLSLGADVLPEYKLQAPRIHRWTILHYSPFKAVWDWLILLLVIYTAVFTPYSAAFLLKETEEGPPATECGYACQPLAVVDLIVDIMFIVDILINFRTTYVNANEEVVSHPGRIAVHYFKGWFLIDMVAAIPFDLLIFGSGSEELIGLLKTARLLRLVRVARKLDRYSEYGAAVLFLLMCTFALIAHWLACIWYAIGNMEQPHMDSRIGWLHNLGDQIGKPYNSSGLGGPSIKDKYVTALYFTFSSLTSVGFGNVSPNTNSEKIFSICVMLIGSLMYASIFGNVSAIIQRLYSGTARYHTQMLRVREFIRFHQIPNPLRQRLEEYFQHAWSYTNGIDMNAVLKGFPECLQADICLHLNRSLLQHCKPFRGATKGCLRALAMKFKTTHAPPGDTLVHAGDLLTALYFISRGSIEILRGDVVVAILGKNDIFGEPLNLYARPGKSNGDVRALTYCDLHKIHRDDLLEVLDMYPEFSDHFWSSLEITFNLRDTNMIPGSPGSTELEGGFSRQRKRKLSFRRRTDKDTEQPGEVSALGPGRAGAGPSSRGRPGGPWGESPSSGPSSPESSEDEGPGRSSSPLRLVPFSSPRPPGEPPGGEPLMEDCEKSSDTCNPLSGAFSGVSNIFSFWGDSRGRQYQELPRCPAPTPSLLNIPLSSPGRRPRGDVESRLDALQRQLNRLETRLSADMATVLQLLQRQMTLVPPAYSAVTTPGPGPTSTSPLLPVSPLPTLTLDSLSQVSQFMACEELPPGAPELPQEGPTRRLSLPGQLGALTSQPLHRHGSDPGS

Compound | hERG current change (%, negative = inhibition) at 10uM [%]
COc1ccc(NC(=O)CN2CCN(c3nc(-c4cccc(OC)c4)cs3)CC2)cc1 | -25.1
COc1ccc(NC(=O)CSc2nnc(C3CC3)n2C)cc1S(=O)(=O)N1CCOCC1 | -0.595
O=C(O)C(=O)O.OC(CNC1CCCc2ccccc21)COc1c(Cl)cccc1Cl (stereo not drawn) | -56.5
CC1(C)Oc2ccc(C(=O)N3CCOCC3)cc2N(CC(=O)N2CCOCC2)C1=O | 18.7
COc1ccccc1CCNC(=O)C(=O)NCC1OCCN1S(=O)(=O)c1ccc(C)cc1 (stereo not drawn) | -10.2
O=C(NC1CCN(Cc2ccccc2)CC1)C1CCN(c2nnc(-n3cccc3)s2)CC1 | -59
Cc1ccc(-c2nn(Cc3ccccc3)cc2/C=C/C(=O)O)cc1 | 9.14
CCOC(=O)C1=C(c2ccccc2)NC(=O)NC1c1ccsc1 (stereo not drawn) | 20.9
Cn1c(Cc2ccccc2)nnc1SCCC(=O)Nc1ccccc1 | -0.0706
CN1/C(=C/C(=O)CSc2ccccc2C(=O)O)C(C)(C)c2ccccc21 | 8.23
O=C(NC1CCCC1)C(Cc1ccccc1)n1cccc1 (stereo not drawn) | 0.725
COc1cccc(NC(=O)CN(C)C(=O)c2cc(-c3ccco3)nc3ccccc23)c1 | -21.8
CC(=O)NS(=O)(=O)c1ccc(NC(=O)CN2C(=O)C3C4C=CC(C4)C3C2=O)cc1 (stereo not drawn) | 7.3
COc1cccc(NC(=O)CC2Oc3ccccc3NC2=O)c1 (stereo not drawn) | 9.38
CO[C@@]1(NC(=O)C2SC(=C(C(N)=O)C(=O)O)S2)C(=O)N2C(C(=O)O)=C(CSc3nnnn3C)CS[C@@H]21 (stereo partly drawn) | 13.6
O=C(OCc1nc2scc(-c3ccccc3)c2c(=O)[nH]1)c1cc([N+](=O)[O-])ccc1Cl | 12.7
O=C(c1ccc(COc2ccccc2Br)o1)N1N=C(C(F)F)CC1(O)C(F)F (stereo not drawn) | 8.69
O=C(OCC(=O)N1CCCc2ccccc21)c1cccc(S(=O)(=O)N2CCc3ccccc32)c1 | -12.4
Cc1ccc(NC(=O)CCn2cccc2)cc1C | 19
Cc1ccccc1OCC(=O)N(Cc1nc(-c2ccccc2)no1)C(C)C | -15
C[C@H](NC(=O)c1ccccc1Cl)C(=O)OCC(=O)NNC(=O)c1cccs1 | 3.67

Compound | hERG current change (%, negative = inhibition) at 10uM [%]
Nc1nc(SCC(=O)Nc2ccc(OC(F)(F)F)cc2)[nH]c(=O)c1NC(=O)c1ccc(Br)o1 | 28.2
N#CC1=C(C2CC2)CC(c2ccccc2)C(C#N)=C1N (stereo not drawn) | -4.32
COc1ccc(C(C)=O)cc1CC(C(=O)c1ccc(C)c(C)c1)N(C)C (stereo not drawn) | -1.98
COc1ccc(CCn2c(=N)c(C(=O)NCc3ccco3)cc3c(=O)n4cccc(C)c4nc32)cc1 | -75.6
NS(=O)(=O)c1ccc(NC(=S)Nc2cc(Cl)c(Cl)cc2Cl)cc1 | 29.9
O=C(NCc1ccccc1)c1cccc(NC(=O)c2ccco2)c1 | 2.1
O=C(COc1ccc([N+](=O)[O-])cc1)Nc1ccc2c(c1)OCO2 | -1.79
COc1ccc(NC(=O)C2CCC(N3C(=O)C4C5C=CC(C5)C4C3=O)CC2)cc1 (stereo not drawn) | -10.3
Cc1[nH]nc2ncc(C(=O)c3ccccc3O)cc12 | 8.54
CCCC(=O)Nc1ccc(C(=O)n2ccc(C)n2)cc1 | 4.49
Cc1ccc(C(=O)NCCOc2cccc3cccnc23)cc1Cl | -7.01
CC(C)COC(=O)N1CCCC1C(=O)Nc1nccs1 (stereo not drawn) | 4.51
CN1CC(=O)N(CCOc2ccccc2)C1=O | 23.7
CC1(C)Cc2c(C#N)c(NC3CCCCC3)nc(-c3ccco3)c2CO1 | 5.67
COc1cccc(NC(=O)C(C)NS(=O)(=O)c2ccc(Br)cc2)c1 (stereo not drawn) | -26.5
COc1ccc(C(=O)Nc2ccc(N3CCCCC3)cc2)cc1Br | -8.48
O=C(CN1CCCCC1)Nc1ccc(C(F)(F)F)cc1Cl | 5.72
CC12CN3CC(C)(CN(C1)C3c1cccs1)C2 (stereo not drawn) | -4.15
CC(Oc1cc(F)ccc1[N+](=O)[O-])C(=O)Nc1ccc(S(=O)(=O)N2CCCC2)cc1 (stereo not drawn) | -8.24
Cc1c(Cl)c([N+](=O)[O-])nn1CCCC(=O)NCCc1ccccc1 | -8.79
O=C(C1=C[C@@H](c2ccccc2)C[C@@H](OCc2ccc(CO)cc2)O1)N1CCCCCCC1 | -24.1
